Columns and labels:
[1] = target: T1, human CD28-Fc chimera (R&D, Cat. No. 342-CD) (human, UniProt P10747 19-152); assay: SPR (Biacore), multi-cycle kinetics, binding to CD28-Fc
T1 construct: Bought reagent; also called recombinant human CD28-Fc fusion protein; recombinant CD28 fused to an Fc backbone; Fc part of the bought chimera not given

[2] = target: T1, human CD28-Fc chimera (R&D, Cat. No. …); assay: direct CD28 EIA on plate-coated human CD28-Fc chimera, construct titrated (nM), OD read
[3] = target: T2, human CD28 on the cell surface (membranal CD28) (human, UniProt P10747 19-220); assay: flow cytometry on human CD3 cells, 300 nM, anti-human IgG VHH Alexa Fluor 647
T2 construct: also called mCD28; CD28 on the surface of cells

[4] = target: T2, human CD28 on the cell surface …; assay: flow cytometry on human CD3 cells, 300 nM; reference 12A09-25GS-huFc (parental)
CD28-Fc = target: T3, CD28-Fc (Homo sapiens, UniProt P10747); assay: Biacore multi-cycle kinetics on immobilized CD28-Fc; type: binding; conditions: Table 5, VHH-25GS-human IgG4 Fc dimeric agents
T3 construct: Fc

Molecule	Kd [1]	koff [1]	kon [1]	EC50 (read off the curve) [2]	MFI [3]	fold fluorescence against the parental construct [4]	Kd (CD28-Fc)
9B03-25GS-hG4 (Fc fusion, also called 9B03-25GS-huFc; 9B3-25GS-hIgG4) EVQLVESGGGLVQAGESLRLSCAASGSIASIRTMAWYRQAPGSQRELVAAISSGREVYYADSVKGRFTISRDNAKTTVYLQMNSLRPEDTAVYYCVVDMYWQDYWWWGQGTQVTVSSGGGGSGGGGSGGGGSGGGGSGGGGS[human IgG4 Fc with changes not shown]	0.393 nM	0.000102 s⁻¹	260000 M⁻¹ s⁻¹	~0.9 nM			
12A09 (VHH4)-25GS-hG4 (Fc fusion, also called 12A09-VHH4-25GS-huFc (humanized); 12A9-VHH4-25GS-huFc) EVQLVESGGGLVQPGGSLRLSCAASGSIASIKTMAWYRQAPGKQRELVTAIASDNRKYYADSVKGRFTISRDNSKNTLYLQMNSLRAEDTAVYYCVVDVTKEDYWYWGQGTLVTVSSGGGGSGGGGSGGGGSGGGGSGGGGS[human IgG4 Fc with changes not shown]	0.435 nM	5.38e-05 s⁻¹	124000 M⁻¹ s⁻¹		564 MFI		
12A09 (VHH12)-25GS-hG4 (Fc fusion, also called 12A09-VHH12-25GS-huFc (humanized); 12A09-VHH12-25G-huFc) EVQLVESGGGLVQPGGSLRLSCKASGSIASIKTMAWYRQAPGKGLELVTAIASDNRKYYADSVKGRFTISRDNSKTTVYLQMNSLRAEDTAVYYCVVDVTKEDYWYWGQGTLVTVSSGGGGSGGGGSGGGGSGGGGSGGGGS[human IgG4 Fc with changes not shown]	0.396 nM	3.01e-05 s⁻¹	76100 M⁻¹ s⁻¹		1650 MFI	3 fold	
12A09 (VHH16)-25GS-hG4 (Fc fusion, also called 12A09-VHH16-25GS-huFc (humanized); 12A09-VHH16-25G-huFc (humanized)) EVQLVESGGGLVQPGGSLRLSCAASGSTASIKTMAWYRQAPGKGLELVTAIASDNRKYYADSVKGRFTISRDNSKTTVYLQMNSLRAEDTAVYYCVVDVTKEDYWYWGQGTLVTVSSGGGGSGGGGSGGGGSGGGGSGGGGS[human IgG4 Fc with changes not shown]	0.298 nM	2.53e-05 s⁻¹	84900 M⁻¹ s⁻¹		1590 MFI	3 fold	
12A09 (VHH17)-25GS-hG4 (Fc fusion, also called 12A09-VHH17-25GS-huFc (humanized); 12A09-VHH17-25G-huFc) EVQLVESGGGLVQPGGSLRLSCKASGSTASIKTMAWYRQAPGKGLELVTAIASDNRKYYADSVKGRFTISRDNSKTTVYLQMNSLRAEDTAVYYCVVDVTKEDYWYWGQGTLVTVSSGGGGSGGGGSGGGGSGGGGSGGGGS[human IgG4 Fc with changes not shown]	0.17 nM	1.29e-05 s⁻¹	75900 M⁻¹ s⁻¹		1920 MFI	3 fold	
12A09 (VHH18)-25GS-hG4 (Fc fusion, the same make-up is recited in CLM-00093; also called 12A09-VHH18-25GS-huFc (humanized); 12A9-VHH18-25GS-huFc) EVQLVESGGGLVQPGGSLRLSCAASGSIASIKTMAWYRQAPGKGRELVTAIASDNRKYYADSVKGRFTISRDNSKTTVYLQMNSLRAEDTAVYYCVVDVTKEDYWYWGQGTLVTVSSGGGGSGGGGSGGGGSGGGGSGGGGS[human IgG4 Fc with changes not shown]	0.361 nM	4.22e-05 s⁻¹	117000 M⁻¹ s⁻¹		612 MFI		
9B03 (VHH1)-25GS-hG4 (Fc fusion, also called 9B03-VHH1-25GS-huFc (humanized); humanized 9B3 variant VHH1 chimera) EVQLVESGGGLVQPGESLRLSCAASGSIASIRTMAWYRQAPGSQRELVAAISSGREVYYADSVKGRFTISRDNAKTTVYLQMNSLRAEDTAVYYCVVDMYWQDYWWWGQGTQVTVSSGGGGSGGGGSGGGGSGGGGSGGGGS[human IgG4 Fc with changes not shown]	0.449 nM	9.79e-05 s⁻¹	219000 M⁻¹ s⁻¹				
12A09-25GS-hG4: VHH 12A9 fused via 25 amino acid GGGGSx5 linker to human IgG4 Fc (S228P, L235E), dimeric; SEQ ID NO: 93 (protein, chains of the parent or of the whole protein) EVQLVESGGGLVQAGESLRLSCAASGSIASIKTMAWYRQAPGSQRELVTAIASDNRKYYADSVKGRFTISRDNAKTTVYLQMNSLRPEDTAVYYCVVDVTKEDYWYWGQGTQVTVSSGGGGSGGGGSGGGGSGGGGSGGGGS[human IgG4 Fc with changes not shown]							0.161 nM
